We go through 44 compounds from PubChem BioAssay AID1645882 (National Center for Advancing Translational Sciences (NCATS), 2021).

About 120 (0.75%) of roughly 16,000 compounds were called active. Not shown: some 4% with an inconclusive outcome. The call rests on the fitted dose curve; in most records, active means well fitted inhibition curve with a large enough effect; inconclusive means small, poorly fitted or top-dose-only effect; inactive means no such curve, though single readings can be large or run the other way. The list shows a part of the results.

Sequence of UniProt O95398 (O95398 whole entry, looked up): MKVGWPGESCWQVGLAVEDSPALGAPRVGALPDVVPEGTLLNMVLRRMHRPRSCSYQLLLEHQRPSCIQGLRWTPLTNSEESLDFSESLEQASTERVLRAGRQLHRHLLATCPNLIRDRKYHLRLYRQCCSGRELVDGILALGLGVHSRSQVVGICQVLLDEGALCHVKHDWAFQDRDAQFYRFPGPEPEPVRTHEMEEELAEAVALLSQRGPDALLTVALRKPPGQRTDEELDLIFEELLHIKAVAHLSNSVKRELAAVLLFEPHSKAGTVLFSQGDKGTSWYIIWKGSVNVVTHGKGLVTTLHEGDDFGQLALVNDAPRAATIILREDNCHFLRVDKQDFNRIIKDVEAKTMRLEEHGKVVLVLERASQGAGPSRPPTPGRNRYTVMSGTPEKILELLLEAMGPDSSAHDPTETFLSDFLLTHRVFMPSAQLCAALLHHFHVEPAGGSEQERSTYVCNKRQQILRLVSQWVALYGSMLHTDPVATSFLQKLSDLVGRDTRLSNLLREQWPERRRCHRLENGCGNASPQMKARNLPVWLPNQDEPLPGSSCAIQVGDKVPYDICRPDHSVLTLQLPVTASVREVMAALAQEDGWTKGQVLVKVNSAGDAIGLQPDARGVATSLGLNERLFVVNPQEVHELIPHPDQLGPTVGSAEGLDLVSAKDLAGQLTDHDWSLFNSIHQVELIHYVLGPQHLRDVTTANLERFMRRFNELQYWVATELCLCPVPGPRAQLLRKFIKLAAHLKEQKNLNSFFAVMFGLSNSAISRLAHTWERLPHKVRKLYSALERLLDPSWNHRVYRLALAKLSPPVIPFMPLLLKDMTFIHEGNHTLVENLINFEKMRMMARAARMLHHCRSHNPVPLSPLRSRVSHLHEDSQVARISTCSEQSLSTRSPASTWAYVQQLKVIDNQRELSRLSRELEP

The target in the experiment is Rap guanine nucleotide exchange factor 3 (Homo sapiens) (UniProt O95398). The experiment can be described thus: Validation qHTS for antagonist of cAMP-regulated guanine nucleotide exchange factor 3 (EPAC1).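 Further: plate controls were DMSO for no effect and ATA control for full effect; nearly all actives have a fitted effect of over 75% in size.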 The note with it: EPAC1 Rap1B-BODIPY-GDP exchange, fluorescence; series mostly up to 150 µM; activity change, negative = inhibition: at the top concentration. The procedure, abridged:
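EPAC1 (100 nM) mixed with 250 nM RAP1B-BODIPY-GDP and 50 uM GDP; compounds in concentration series, 5 min at room temperature. Fluorescence (ex 480/em 540 nm) read every 5 min for 30 min; normalized to ATA control and DMSO.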
Background: qHTS replaces the single test concentration by a dilution series.
With `Cc1c(C)n(CCN(C)C)c2ccc(C(=O)OCCN(C)C)cc12`, the “activity change, negative = inhibition” value is inactive: 0.933%.

For `Cc1c[nH]c(=O)n(CCCN2CCN(c3ccccc3OCC(F)(F)F)CC2)c1=O`, the “activity change, negative = inhibition” value was inactive: -2.34%.

`CCCCC/C=C\C/C=C\C/C=C\C/C=C\CCCC(=O)O[C@H](COCCCCCCCCCCCCCCCC)COP(=O)([O-])OCC[N+](C)(C)C`: the activity change, negative = inhibition is inactive: 11.9% [at 15.3 µM].

`COc1ccc2c(c1)OC(C)CN(CCNC(=O)c1csc(-c3cccs3)n1)C2` (centres undefined): the “activity change, negative = inhibition” value is inactive: 20.2%.

As for `COCC(=O)N1CCC2(CC1)CN(Cc1nccs1)C2`, the “activity change, negative = inhibition” value was inactive: 37.8%.

In the case of `C[C@]12CC[C@@H]3c4ccc(O)cc4C[C@@H](CCCCCCCCCS(=O)CCCC(F)(F)C(F)(F)F)[C@H]3[C@@H]1CC[C@@H]2O` (some centres undefined), the activity change, negative = inhibition result is “inactive”.

In the case of `COc1ccc2cc1Oc1ccc(cc1)C[C@H]1c3cc(c(OC)cc3CCN1C)Oc1c(OC)c(OC)cc3c1[C@H](C2)N(C)CC3`, the activity change, negative = inhibition entry is “inactive”.

As to `CCCCCCCCCCCCSCCOCCO`, the “activity change, negative = inhibition” value was inactive: 19.4%.

As for `C[C@@H](NC(=O)/C(C#N)=C/c1ccc(O)c(O)c1)c1ccccc1`, the “activity change, negative = inhibition” value is inactive: 35.9% [at 75.8 µM].

For `COc1ccc(-c2nc3cnc(N4CCNCC4)nc3n(-c3ccccc3)c2=O)cc1`, the “activity change, negative = inhibition” value is inactive: 12.1%.

As for `O=C(c1csnn1)N1CCC2(CC1)CCN(c1ccccc1)CC2`, the “activity change, negative = inhibition” value was inactive: 24.3%.

On to `COc1cccc(Cn2c(=O)c(-c3ccccc3)nc3cnc(N(C)C)nc32)c1`, for which the “activity change, negative = inhibition” value was inactive: 3.51%.

Turning to `Cc1cccc(CNC(=O)c2cnn(-c3ncc4c(n3)-c3ccccc3CC4)c2C2CC2)n1`, the “activity change, negative = inhibition” value is inactive: -0.034%.

For the compound `CC(=O)OCC(=O)[C@@]1(O)[C@H](C)C[C@H]2[C@@H]3C[C@H](F)C4=CC(=O)C=C[C@]4(C)[C@H]3[C@@H](O)C[C@@]21C`, the “activity change, negative = inhibition” value was inactive: 22.1%.

`O=C(C[N+]1(CCc2ccccc2)CCOCC1)c1ccccc1`: the “activity change, negative = inhibition” value is inactive: 27.8%.

Consider `CNCC[C@H](Oc1ccccc1OC)c1ccccc1`, for which the “activity change, negative = inhibition” value is inactive: 2.96%.

As for `Fc1ccc(C(c2ccc(F)cc2)N2CCN(C/C=C\c3ccccc3)CC2)cc1`, the “activity change, negative = inhibition” value was inactive: -19.4%.

Consider `NC(=O)Oc1ccc(Cc2ccccc2)cc1`, for which the “activity change, negative = inhibition” value was inactive: 6.34%.

With `O=C(c1cccc(F)c1)N1CCC[C@@]2(CCN(Cc3ccccc3)C2)C1`, the “activity change, negative = inhibition” value was inactive: 14.8%.

Consider `CC(C)CN1CCCC2(CCN(C(=O)c3ccco3)CC2)C1`, for which the “activity change, negative = inhibition” value was inactive: 13.1%.

Consider `Nc1nc2c(c(=O)[nH]1)N(C=O)C(CNc1ccc(C(=O)NC(CCC(=O)O)C(=O)O)cc1)CN2` (centres undefined), for which the “activity change, negative = inhibition” value was inactive: 12.1%.

For `COc1cc(=O)n2c(c1C(=O)N(C)Cc1nccs1)CCN(Cc1ccc(F)c(F)c1)CC2`, the “activity change, negative = inhibition” value is inactive: 7.83%.

Take `Cc1ccc(C(=O)Nc2cccc(-c3nc(CNC(=O)c4ccc5ccccc5n4)c(C)o3)c2)s1`: the “activity change, negative = inhibition” value is inactive: 1.13%.

In the case of `CCn1nc(C)c(CN2Cc3ccccc3OC(c3ccccc3OC)C2)c1C` (centres undefined), the “activity change, negative = inhibition” value was inactive: 6.12%.

With `O=C(O)c1ccccc1-c1ccc(C(F)(F)F)cc1`, the “activity change, negative = inhibition” value was inactive: -17.3%.

As for `Nc1ncnc2c1ncn2CCOCP(=O)(O)O`, the “activity change, negative = inhibition” value is inactive: 16.2%.

Consider `CC(C)C1=CC2=CC[C@@H]3[C@@](C)(C(=O)O)CCC[C@]3(C)C2CC1` (some centres undefined), for which the “activity change, negative = inhibition” value is inactive: -15.6%.

With `COC(=O)[C@H](CC(C)C)NS(=O)(=O)NC(=O)OC(C)(C)C`, the “activity change, negative = inhibition” value was inactive: 10.9%.

For the compound `CCNc1ncc2nc(C)c(=O)n(C[C@H]3CCCO3)c2n1`, the “activity change, negative = inhibition” value was inactive: -2.85%.

For `CCC1(C2CCN(C(=O)c3coc4c3C(=O)CCC4)CC2)NC(=O)N(CCc2scnc2C)C1=O` (centres undefined), the “activity change, negative = inhibition” value is inactive: 11.2%.

In the case of `COc1ccc(CN2CC[C@H]3C=CC[C@@H](C(=O)NCCc4ccccc4)[C@H]3C2=O)cc1OC`, the “activity change, negative = inhibition” value was inactive: 3.44%.

Take `O=C1CCc2cc(OCCCCc3nnnn3C3CCCCC3)ccc2N1`: the activity change, negative = inhibition result was “inactive”.

Regarding `Cc1noc(C)c1-c1nc(NC2CCNCC2)c2ccccc2n1`, the “activity change, negative = inhibition” value was inactive: -0.308%.

As to `CCS(=O)(=O)CCn1c([N+](=O)[O-])cnc1C`, the activity change, negative = inhibition result is “inactive”.

As to `N#Cc1cccc(-c2ccc3ncnc(NCc4ccccc4)c3c2)c1`, the “activity change, negative = inhibition” value was inactive: -13.9%.

As for `COc1cc(OC)c2c(c1)OC(c1ccccc1)CC2=O` (centres undefined), the “activity change, negative = inhibition” value was inactive: 2.39%.

`CC[C@H]1OC(=O)[C@H](C)C(=O)[C@H](C)[C@@H](O[C@@H]2O[C@H](C)C[C@H](N(C)C)[C@H]2O)[C@](C)(OC)C[C@@H](C)C(=O)[C@H](C)[C@H]2N(CCCCn3cnc(-c4cccnc4)c3)C(=O)O[C@]12C`: the activity change, negative = inhibition result is “inactive”.

Regarding `COC(=O)c1ccc(CN2CCOc3ccc(CN4CCC(O)(c5cccnc5)CC4)cc3C2)cc1`, the “activity change, negative = inhibition” value is inactive: 13.8%.

With `CCCCOc1cc(C(=O)NCCN(CC)CC)c2ccccc2n1`, the activity change, negative = inhibition result is “inactive”.

For `NC(N)=NCC1COC2(CCCCC2)O1` (centres undefined), the “activity change, negative = inhibition” value is inactive: 13.1% [at 75.8 µM].

For the compound `Cn1c(=O)c(-c2ccc(F)cc2)nc2cnc(Nc3ccccc3)nc21`, the “activity change, negative = inhibition” value was inactive: 8.41%.

Turning to `C/C(=C(\CCOC(=O)c1ccccc1)SS/C(CCOC(=O)c1ccccc1)=C(/C)N(C=O)Cc1cnc(C)nc1N)N(C=O)Cc1cnc(C)nc1N`, the “activity change, negative = inhibition” value was inactive: 15.1%.

Consider `CC(=O)OCC1OC(n2cnc3c(=O)[nH]cnc32)C(OC(C)=O)C1OC(C)=O` (centres undefined), for which the “activity change, negative = inhibition” value was inactive: 20.2%.

Regarding `COc1ccc(-c2nc3cnc(Nc4ccccc4)nc3n(CCC#N)c2=O)cc1`, the “activity change, negative = inhibition” value is inactive: 90.9%.
